The whole screen tested about 350,000 compounds, of which about 260 (0.074%) were called active. Inconclusive results, whose numbers are uncertain, are shown with a selection of clear calls. Calls follow the shape of the dose curve; as a rule, active = well fitted inhibition curve with a large enough effect; inconclusive = small, poorly fitted or top-dose-only effect; inactive = no such curve, though single readings can be large or run the other way. A potency beside an inconclusive call is a rough fit, not a confirmed value.
target: Ferritin light chain (Equus caballus) (UniProt P02791); assay: qHTS Assay for Identification of Novel General Anesthetics; conditions: apoferritin/1-aminoanthracene competitive binding, fluorescence; activity change, negative = displacement: at 77.5 µM (top of the series); also: nearly all actives have a fitted effect of over 20% in size
Sequence of UniProt P02791 (P02791 whole entry, looked up): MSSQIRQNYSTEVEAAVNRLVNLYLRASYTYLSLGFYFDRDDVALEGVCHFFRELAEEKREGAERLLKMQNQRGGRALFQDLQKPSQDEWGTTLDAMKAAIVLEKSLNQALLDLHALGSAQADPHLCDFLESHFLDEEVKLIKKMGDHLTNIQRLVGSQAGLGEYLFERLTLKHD
Procedure, shortened: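 In PBS, apoferritin at 10 uM is loaded with 1-AMA from a 50% saturated solution. After 10 min of compound exposure at ambient temperature, reduced 535 nm fluorescence indicates probe displacement.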
% is scaled to controls: 0 for no effect and ±100 for the full control effect; potency is read from the fitted curve at half-maximal effect; tags tell the direction and shape of the fitted curve.

| Compound | Potency | activity change, negative = displacement |
| --- | --- | --- |
| Cc1nc(C)c(-c2ccc(SCC(=O)Nc3cccc(F)c3)nn2)s1 | inconclusive: 25.1 µM [inhibitor, partial curve] |  |
| Cc1ccccc1OCC(O)Cn1c(SC(C)C)nc2c1c(=O)[nH]c(=O)n2C (stereo not drawn) | inconclusive: 39.8 µM [inhibitor, partial curve] |  |
| C=C(C)COc1ccc2c(CC)cc(=O)oc2c1 | inconclusive: 28.2 µM [inhibitor, partial curve] |  |
| COc1ccccc1CNS(=O)(=O)c1ccc(C)cc1 | inconclusive: 31.6 µM [inhibitor, single point] |  |
| CCOc1ccccc1NC(=O)CN(c1ccc(C)cc1)S(=O)(=O)c1c(C)n[nH]c1C | inconclusive: 14.1 µM [inhibitor, partial curve] |  |
| O=C(CN1CCCCCC1)Nc1ccc(Oc2ccccc2)cc1 | inconclusive: 22.4 µM [inhibitor, partial curve] |  |
| CN(C)CCCNC(=O)/C(=N\O)c1ccccc1 |  | inactive: -12.8% |
| Cn1cccc1C(=O)NC(=O)COC(=O)c1ccc(O)cc1 | inconclusive: 63.1 µM [inhibitor, partial curve, poor fit] |  |
| O=C(Cc1cccc(C(F)(F)F)c1)NCc1cccc(Cl)c1 | inconclusive: 35.5 µM [inhibitor, partial curve] |  |
| O=C(CNC(=O)c1ccccc1)OCc1cccc(Br)c1 | inconclusive: 25.1 µM [inhibitor, partial curve] |  |
| CCN(C(=O)c1ccc2c(c1)N(Cc1cccc(Cl)c1)C(=O)c1ccccc1S2=O)c1ccccc1 (stereo not drawn) | inconclusive: 0.708 µM [inhibitor, full curve, poor fit] |  |
| Cc1cc(C)cc(OCc2nnc(SCC(=O)OC3CCCCC3)o2)c1 | inconclusive: 5.01 µM [inhibitor, full curve] |  |
| O=C(CSC(=S)N1CCCCC1)N1N=CCC1c1ccccc1 (stereo not drawn) | inconclusive: 17.8 µM [inhibitor, partial curve] |  |
| C/C(N)=C(/C#N)C(=O)COC(=O)CCSc1ccccc1Cl | inconclusive: 35.5 µM [inhibitor, partial curve] |  |
| O=C(CSCc1ccc(Cl)cc1)N/N=C/c1ccc(Cl)cc1Cl | inconclusive: 5.62 µM [inhibitor, partial curve] |  |
| CSc1cccc(NS(=O)(=O)c2ccccc2)c1 | inconclusive: 56.2 µM [inhibitor, single point] |  |
| CC(=O)Nc1ccc(Nc2ncnc3c2cnn3-c2ccccc2)cc1 |  | inactive: -5.63% |
| CCOC(=O)N1CCC(Nc2c(N3CCN(c4cccc(C(F)(F)F)c4)CC3)c(=O)c2=O)CC1 | inconclusive: 14.1 µM [inhibitor, partial curve] |  |
